These results are taken from PubChem BioAssay AID1159614 (National Center for Advancing Translational Sciences (NCATS), 2016).

About 65 (0.1%) of roughly 45,000 compounds were called active. Calls follow the shape of the dose curve; as a rule, active = well fitted activation curve with a large enough effect; inconclusive = small, poorly fitted or top-dose-only effect; inactive = no such curve, though single readings can be large or run the other way. The list shows a part of the results.

In this assay the target is Galactocerebrosidase (Homo sapiens) (UniProt P54803). The assay can be described thus: A Novel Cell-Based Assay to Identify Small Molecules for B -Galactocerebrosidase. Also: 0% is about no effect; nearly all actives have a fitted effect of over 65% in size. The note with it: 145M-Twi-hGALC-G270D cells (Twitcher mouse brain line with human GALC G270D), HMU-beta-Gal fluorescence, 48 h; series mostly up to 57.5 µM; activation: at the top concentration. In outline: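 Live 145M-Twi cells (Twitcher mouse brain-derived, GALC-null) stably expressing human GALC-G270D, with a wild-type GALC line, were compound-treated. Residual GALC activity was then read as fluorescence from 0.1 mM final HMU-β-gal at pH 5.2; higher signal means activation.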
Sequence of UniProt P54803 (P54803 whole entry, looked up): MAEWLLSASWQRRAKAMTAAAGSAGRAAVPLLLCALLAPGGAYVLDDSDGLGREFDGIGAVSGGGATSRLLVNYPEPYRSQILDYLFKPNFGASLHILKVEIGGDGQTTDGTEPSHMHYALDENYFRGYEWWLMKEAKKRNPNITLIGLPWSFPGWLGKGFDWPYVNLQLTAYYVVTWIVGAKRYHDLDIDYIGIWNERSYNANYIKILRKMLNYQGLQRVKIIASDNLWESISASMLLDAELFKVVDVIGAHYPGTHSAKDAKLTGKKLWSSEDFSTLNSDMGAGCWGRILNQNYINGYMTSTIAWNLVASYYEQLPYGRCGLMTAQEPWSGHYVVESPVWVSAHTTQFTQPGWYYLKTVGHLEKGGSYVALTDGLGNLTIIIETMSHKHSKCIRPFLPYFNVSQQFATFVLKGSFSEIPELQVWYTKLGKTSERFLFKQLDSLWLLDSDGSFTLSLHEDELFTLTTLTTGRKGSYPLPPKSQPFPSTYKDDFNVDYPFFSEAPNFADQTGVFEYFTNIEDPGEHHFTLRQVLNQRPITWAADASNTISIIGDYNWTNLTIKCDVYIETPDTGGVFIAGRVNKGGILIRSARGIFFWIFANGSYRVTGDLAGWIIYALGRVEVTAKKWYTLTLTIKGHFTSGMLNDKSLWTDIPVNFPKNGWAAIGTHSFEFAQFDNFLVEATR
For `O=C(Cn1cc(SCc2cccc(Cl)c2)c2ccccc21)N1CCOCC1`, the “activation” value was inactive: -10.6%.
Next, `COc1cc(C(=O)NC2CC(=O)N(c3cccc(F)c3)C2)cc(OC)c1OC` (stereo not drawn): inactive: -4.48%; `COc1ccc(-c2ccnc3c(-c4ccc(F)cc4)c(C)nn23)cc1OC`: inactive: -11%; `Cc1ccc(NC(=O)C2CCCN2S(=O)(=O)c2cccc3cccnc23)cc1` (stereo not drawn): inactive: -12.6%.
To `Cc1cc(C)n2nc(CNS(=O)(=O)c3ccc(Cl)cc3)nc2n1` belongs inactive: -13.1%; to `CC1CN(C(=O)N2CCC(C(=O)NC3CCCCCC3)CC2)c2cc(Cl)ccc2O1` (stereo not drawn), inactive: -8.52%; to `COc1ccccc1N1CCN(S(=O)(=O)c2ccc(F)c(C(=O)Nc3ccc(C)c(F)c3)c2)CC1`, inactive: -7.84%.
Next, `CCOc1ccc2nc(N3CCCC(C(=O)Nc4ccc(Br)c(C)c4)C3)sc2c1` (stereo not drawn): inactive: -19.4%; `COc1ccc(NC(=O)c2ccco2)cc1NC(=O)COc1cc(C)cc(C)c1`: inactive: -8.76%; `CCC(=O)N1CCc2cc(Br)cc(S(=O)(=O)N3CCN(c4ccccc4)CC3)c21`: inactive: -8.33%.
With `CCc1nnc2c(NCc3ccc(F)cc3)nc3ccccc3n12`, the “activation” value is inactive: -20.6%.
Next, `COc1ccc(CNC(=O)C2CCCN(S(=O)(=O)c3ccc4c(c3)CCCN4C(C)=O)C2)cc1` (stereo not drawn): inactive: -16.3%.
As for `Cc1ccc(C(C)C)c(OCCn2cc(C(=O)c3ccco3)c3ccccc32)c1`, the “activation” value was inactive: -16.8%.
In the case of `O=C(Nc1cc(Cl)cc(Cl)c1)c1ccc(F)c(S(=O)(=O)N2CCCCCC2)c1`, the “activation” value was inactive: -16.3%.
To `COc1ccccc1N1CCN(C(=O)c2oc3ccccc3c2NC(=O)C(C)Oc2ccccc2)CC1` (stereo not drawn) belongs inactive: -19.8%.
As to `CCOc1ccc(-c2n[nH]c3c2C(c2ccccc2OC)N(c2ccc(Br)cc2)C3=O)cc1` (stereo not drawn), the “activation” value is inactive: -3.97%.
Next, `COc1ccc2c(c1)NC(c1ccc(OCC(C)C)cc1)=NC(c1ccncc1)=N2`: inactive: -12.1%; `COc1ccc(CCNC(=O)c2cc(Sc3cccc(Cl)c3)nc3ccccc23)cc1OC`: inactive: -10.3%; `COc1ccc2c(c1)CC(C(=O)N1CCC(C(N)=O)CC1)CO2` (stereo not drawn): inactive: -11.3%.
`COC(=O)c1cc2oc(C)cc2n1Cc1c(C)cc(C)cc1C`: the “activation” value was inactive: -15%.
`CCN(CC)c1ccc(NS(=O)(=O)c2ccc3c(c2)CCCN3C(C)=O)c(C)c1`: the “activation” value was inactive: -14.7%.
Next, `COc1cc2c(=O)n(Cc3ccccc3)c(=O)n(CC(=O)Nc3cc(C(F)(F)F)ccc3Cl)c2cc1OC`: inactive: -17.1%; `O=C(Cn1cccc1C(=O)c1ccccc1)NCc1ccc(F)cc1`: inactive: -10.4%; `CN1C(C(=O)Nc2ccc(OC(F)(F)F)cc2)=CC(c2ccc3c(c2)OCO3)=NS1(=O)=O`: inactive: -12.9%.
Next, `Cc1ccc(OC(=O)c2snnc2C)cc1C`: inactive: -14.4%; `CCCN1CCN(CCNC(=O)Nc2cc(OC)cc(OC)c2)CC1`: inactive: -1.85%.
To `O=C(CSc1ncc2c(n1)-c1ccccc1N(Cc1ccc(F)cc1)S2(=O)=O)c1ccc(Br)cc1` belongs inactive: -15.1%.
Regarding `Cc1ccc(NC(=O)C(=O)NCC(c2ccc3c(c2)OCO3)N2CCOCC2)c(C)c1` (stereo not drawn), the “activation” value was inactive: -7.6%.
To `CCc1ccc(N2CCn3c2nc2c3c(=O)n(Cc3cccc(C)c3)c(=O)n2C)cc1` belongs inactive: -5.53%; to `CCOC(=O)c1c(C)oc2ncnc(NCCc3ccccc3)c12`, inactive: -19.4%; to `COc1ccc(C2c3c(n(C)c4ccccc34)C(=O)N2CC(=O)Nc2ccc(Cl)cc2)cc1` (stereo not drawn), inactive: -3.01%.
Next, `COc1cc2nc(SCC(=O)Nc3ccc(F)cc3)n3nc(CCn4c(C)nc5ccccc54)nc3c2cc1OC`: inactive: -4.26%; `COc1ccc(OCC(=O)Nc2cc(-c3cccc(Cl)c3)nn2-c2ccccc2)cc1`: inactive: -17.4%.
To `CCc1ccc(Nc2cc(C)nc3nc(Cc4ccc(Cl)cc4)nn23)cc1` belongs inactive: 5.97%.
Regarding `CC(C)c1ccc(OCc2cc(=O)n3c4c(sc3n2)CCCC4)cc1`, the “activation” value is inactive: 2.89%.
Next, `Cc1cccc(NC(=O)CSc2nc3ccc(NC(=O)c4cccs4)cc3s2)c1`: inactive: -26.8%; `CCN(CC)CCN(C(=O)c1ccco1)c1nc2c(C)cccc2s1`: inactive: -12.2%; `COc1ccc(-c2oc3ncn4nc(-c5ccc(Cl)cc5)nc4c3c2-c2ccc(OC)cc2)cc1`: inactive: 2.91%.
To `COc1ccccc1NC(=O)CN(c1ccc(C(C)C)cc1)S(=O)(=O)c1c(C)noc1C` belongs inactive: -11.1%.
Take `CCOC(=O)c1ccc(CSc2nnc3cc(C)c4ccccc4n23)cc1`: the “activation” value was inactive: 0.519%.
For the compound `O=C(NC1CCCCC1)c1ccc2c(c1)sc1nc(-c3ccccc3)cn12`, the “activation” value was inactive: -2.5%.
As to `N#Cc1ccc(C(=O)N2CCN(c3nc4ccc(F)cc4s3)CC2)cc1`, the “activation” value is inactive: -8.71%.
To `COc1ccc(CNC(=O)CC2N=C3c4ccccc4N=C(SCC(=O)Nc4ccc(N(C)C)cc4)N3C2=O)cc1` (stereo not drawn) belongs inactive: -3.13%; to `Cc1ccc(CN2c3ccccc3S(=O)(=O)c3ccccc32)cc1`, inactive: -15.3%; to `O=C(CSc1oc(-c2ccco2)nc1S(=O)(=O)c1ccc(Cl)cc1)c1ccc(Cl)cc1`, inactive: -10.9%.
To `Cc1ccc2oc(=O)c3cc(C(=O)N(Cc4ccccc4)C(C)C)sc3c2c1` belongs inactive: -25.5%.
To `CCCCCNC(=O)C(=O)NCC(c1ccc2c(c1)OCO2)N1CCOCC1` (stereo not drawn) belongs inactive: -17.9%; to `Cc1ccc(CSc2nc(=O)c3c(n2C)NC(=O)CC3c2ccc(OC(C)C)cc2)cc1` (stereo not drawn), inactive: -14.6%.
